PubChem BioAssay AID686978 (National Center for Advancing Translational Sciences (NCATS), 2013)
In all, about 420,000 compounds went through this assay and about 64,000 (15%) were called active. This list was built around the results that the source calls inconclusive (neither active nor inactive); the mix of calls is not that of the screen. Calls come from the whole dose curve; as a rule, active = well fitted inhibition curve with a large enough effect; inconclusive = small, poorly fitted or top-dose-only effect; inactive = flat fitted curve, though single readings scatter. Potencies of inconclusive entries are left out as doubtful fits.

Assay: qHTS for Inhibitors of human tyrosyl-DNA phosphodiesterase 1 (TDP1): qHTS in cells in absence of CPT; note: nearly all actives have a fitted effect of over 55% in size
Conditions: DT40 Tdp1-/- hTDP1 cells, no CPT, ATP luminescence, 48 h; activity change, negative = growth inhibition: at 46.2 µM (top of the series)
Outline: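 Luminescent ATP content (CellTiter-Glo) served as the growth readout. Knockout chicken DT40 cells expressing human TDP1 were exposed to compounds without camptothecin for a minimum 48 hr at 37 °C.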
% is set by controls: 0 for no effect and ±100 for the full control effect; potency is the fitted concentration of half-maximal effect; tags give direction and shape of the fitted curve.

Structure (SMILES) | Potency | activity change, negative = growth inhibition
O=S(=O)(c1ccc2nc(Cc3ccccc3)[nH]c2c1)N1CCOCC1 | inconclusive [inhibitor, partial curve] | –
Cc1ccc(N(Cc2ccc([N+](=O)[O-])cc2)C(=O)c2ccco2)cc1C | inconclusive [inhibitor, single point] | –
CC(C)CN(C(=O)Cn1nnc(-c2ccc(Cl)cc2)n1)C1CCS(=O)(=O)C1 (configuration not stated) | – | inactive: -11.8%
O=C(NC1CCCCC1)C(c1ccco1)N(CCc1ccccc1)C(=O)C(F)(F)F (configuration not stated) | active: 23.1 µM | –
O=C(c1ccccc1)C(CCc1ccccn1)CCc1ccccn1 | active: 16.4 µM | –
CC(=O)N=c1nc(-c2ccccc2)n(-c2ccccc2)s1 | inconclusive [inhibitor, single point] | –
C=CCCC(=O)N1C[C@H]2CCN(C)[C@H]2C[C@H]1c1ccc(Br)cc1 | – | inactive: -6.58%
N#CCSc1nc2c(sc(=S)n2Cc2ccco2)c(=O)n1-c1ccc(F)cc1 | inconclusive [inhibitor, single point] | –
CCn1c(SCc2ccc(C(=O)Nc3nccs3)cc2)nnc1-c1ccc(NC(C)=O)cc1 | inconclusive [inhibitor, single point] | –
CC(C)CC1C(=O)N(Cc2cn(CCC3OCCCO3)nn2)CCS(=O)(=O)N1Cc1ccc(-c2ccc(F)cc2)cc1 (configuration not stated) | inconclusive [inhibitor, single point] | –
Cc1ccc(S(=O)(=O)Cc2sc3ccccc3[n+]2C)cc1 | – | inconclusive: -31.4% [inhibitor]
Cc1ccc(C)c2c1N(Cc1ccccc1)C(=O)C21OCCO1 | inconclusive [inhibitor, single point] | –
NC(=O)CSc1nc2cc([N+](=O)[O-])ccc2n1-c1cccc(C(F)(F)F)c1 | inconclusive [inhibitor, single point] | –
COc1ccc(CN2CCOc3ccc(CN4CCC(O)(c5cccnc5)CC4)cc3C2)cc1OC | inconclusive [inhibitor, single point] | –
O=C(c1ccccc1)N1CCC(CC2CC(c3cccc(Br)c3)=NO2)(C(=O)NCC2CCCCC2)CC1 (configuration not stated) | inconclusive [inhibitor, single point] | –
CCOc1ccc(NC(=O)c2cccc(S(=O)(=O)Nc3c(C)n(C)n(-c4ccccc4)c3=O)c2)cc1 | inconclusive [inhibitor, single point] | –
COc1cccc(C2NC(=O)c3n[nH]c(-c4cccs4)c32)c1 (configuration not stated) | inconclusive [inhibitor, single point] | –
